# Laboratory results published in PubChem BioAssay AID463173 (ICCB-Longwood Screening Facility, Harvard Medical School, 2010).
# Hit rate of the full screen: of about 52,000 compounds, about 1,700 (3.3%) were called active. Rule as the data show it: active = survival mostly below about 52% (no sharp cut-off); inactive = mostly above about 56%. The list shows a part of the results.
# Test system: Wild type
# Assay: growth inhibition of S. aureus wild type versus tarO mutant, primary screen, teichoic acid synthesis inhibitors, RN4220, OD600 (AID 463173)
# Settings: S. aureus RN4220 wild type/DeltatarO growth, OD600, 18 h, stronger effect = lower value, screened at 18.75 µg/mL (by protocol)
row,SMILES,survival
1,CCOC(=O)COc1nc(C)c(Br)c(OC)n1,inactive: 108%
2,COC(=O)CSc1nc2cc(OC)c(OC)cc2cc1C,inactive: 110%
3,CCOc1ccc2cc(-c3nnc(Nc4ccc(C)cc4)s3)c(=O)oc2c1,inactive: 86%
4,Cc1ccccc1OCc1ccc(-c2nc(C#N)c(N3CCC(C(N)=O)CC3)o2)o1,inactive: 66%
5,CCOc1ccc2c(c1)c(=O)c(S(=O)(=O)c1ccc(Cl)cc1)cn2Cc1ccccc1C,inactive: 90%
6,COc1cccc(Nc2nc3ccc(C(=O)c4ccccc4)cc3n3c(C)nnc23)c1,inactive: 80%
7,COc1ccc(NC(=O)c2ccc(NC(=O)CCS(=O)(=O)c3cccs3)cc2)cc1,inactive: 92%
8,Oc1c(Cl)cc(Cl)cc1CNn1cnnc1,inactive: 92%
9,O=C(Nc1ccc(Cl)c(-c2nc3cc(Cl)ccc3o2)c1)c1cc2ccccc2o1,inactive: 67%
10,Cc1ccc(C)c(CN2C(=O)c3ccccc3S(=O)c3ccc(C(=O)NCCC4=CCCCC4)cc32)c1 (configuration not stated),inactive: 81%
11,COc1ccc(CCC(=O)NCCc2csc(-c3cccc(C)c3)n2)cc1,inactive: 76%
12,Cc1ccccc1-c1nc(SCC(=O)N(C)c2ccccc2)c2c(=O)n(C)c(=O)n(C)c2n1,inactive: 60%
13,Cc1ccccc1NS(=O)(=O)c1nnc(NC(=O)c2ccco2)s1,inactive: 78%
14,CCOC(=O)c1c(S(=O)(=O)NCC(=O)N(C)c2ccc(C)cc2)c(C)n(C)c1C,inactive: 119%
15,CC(C)Oc1ccc(C(=O)Nc2nonc2-c2ccc(OC(C)C)cc2)cc1,inactive: 92%
16,COC(=O)CCN(C(=O)C1CCN(S(=O)(=O)c2c(C)noc2/C=C/c2ccccc2F)CC1)c1ccccc1,inactive: 126%
17,CCc1cccc(NC(=O)Cn2nc3c4cc(F)ccc4n(Cc4cccc(C)c4)cc-3c2=O)c1,inactive: 82%
18,O=C(O)c1ccccc1SC1CC(=O)N(Cc2ccccc2)C1=O (configuration not stated),inactive: 97%
19,CCc1ccccc1N1C(=O)N(CC(=O)c2ccc(OC)cc2)c2ccccc2S1(=O)=O,inactive: 71%
20,O=c1[nH]c2cc3c(cc2cc1CN(Cc1ccco1)S(=O)(=O)c1cccc(C(F)(F)F)c1)OCO3,inactive: 112%
21,CCOC(=O)c1cc(C)n(CC2CCC(C(=O)Nc3cc(OC)cc(OC)c3)CC2)c1C (configuration not stated),inactive: 148%
22,COc1cc(NC(=O)CC(c2cccs2)N2Cc3ccccc3C2=O)cc(OC)c1OC (configuration not stated),inactive: 22%

row,SMILES,survival
1,CCCNC(=O)c1cnc2c(-c3ccc(OCC)c(OCC)c3)c(C)nn2c1-c1ccccc1,inactive: 76%
2,CC(C)n1c(=N)c(C(=O)NC2CCCCC2)cc2c(=O)n3ccccc3nc21,inactive: 73%
3,Clc1cccc(CSc2nnc(C3CCNCC3)o2)c1,inactive: 109%
4,COc1ccc(NC(=O)C(=O)NCc2ccco2)cc1,inactive: 85%
5,CC(=O)NNc1nc(Cl)nc(N(C)C)n1,inactive: 103%
6,CCN(CCCNC(=O)Cn1ncc2c([nH]c3ccc(C)cc32)c1=O)Cc1ccccc1,inactive: 55%
7,CC(=O)c1ccc(NC(=O)Cn2nc(C(F)(F)F)c3c2CCCC3)cc1,inactive: 64%
8,COc1cccc(CN(C(=O)c2cccc(C)c2)C2CCS(=O)(=O)C2)c1 (configuration not stated),inactive: 86%
9,COc1ccc(OC)c(-c2noc(N3CCN(c4cccc(C)c4C)CC3)n2)c1,inactive: 85%
10,CCSc1nn(CC(=O)Nc2cccc(Cl)c2)c(N)c1S(=O)(=O)c1ccc(OC)cc1,inactive: 81%
11,COC(=O)c1ccccc1NC(=O)C1=C(C)C(=O)OC12CCC(C)CC2 (configuration not stated),active: -6%
12,Cc1ccc(CSc2oc(-c3cccs3)nc2S(=O)(=O)c2ccc(C)cc2)cc1,inactive: 128%
13,COC(=O)CC1Oc2ccc(C)cc2-n2cc(-c3ccc(C)cc3)nc21 (configuration not stated),inactive: 47%
14,Cc1cc(N2CCC3CCCC(C2)N3Cc2ccccc2)n2c(n1)nc1ccccc12 (configuration not stated),inactive: 116%
15,CCc1ccc(NC(=O)Cn2c(=O)n(-c3cc(C)cc(C)c3)c(=O)c3oc4ccccc4c32)cc1,inactive: 79%
16,COc1ccc(-c2nc(SCC(=O)Nc3ccc4c(c3)OCCO4)c(-c3ccccc3)[nH]2)cc1,inactive: 66%
17,CCCN(CCC)C(=O)Cn1c(=O)n(Cc2ccc(C(=O)NCCc3ccc(Cl)cc3)cc2)c(=O)c2ccccc21,inactive: 113%
18,COc1ccccc1Cn1cc(C(=O)c2ccc(C)cc2)c(=O)c2cc(F)cc(F)c21,inactive: 81%
19,CCOC(=O)/C(C#N)=C/c1ccc(-c2ccc(C)cc2)o1,inactive: 122%
20,Cc1ccc(-n2nc3c(=O)n(CCCC(=O)NC(C)c4ccccc4)nc(C)c3c2C)cc1 (configuration not stated),inactive: 60%
21,CC(C)CC(=O)Nc1nnc(S(=O)(=O)N2CCc3ccccc32)s1,inactive: 81%
22,Cc1ccc2oc(C(=O)Nc3sc4c(c3C(=O)NCc3cccnc3)CCCC4)cc(=O)c2c1,inactive: 95%

row,SMILES,survival
1,COc1ccccc1NS(=O)(=O)c1cc2c(cc1Cl)NC(=O)CO2,inactive: 83%
2,CCOc1ccc(CCNC(=O)CSc2cc(=O)n(C)c3ccc(Cl)cc23)cc1OCC,inactive: 119%
3,O=C1CN(C(=O)Nc2ccccc2C(F)(F)F)C(c2ccccc2)c2c(sc3c2CCCC3)N1 (configuration not stated),inactive: 83%
4,c1ccc(C2CN3CCSC3=N2)cc1 (configuration not stated),inactive: 109%
5,CC(C)Oc1ccc(CNC(=O)c2ccc(Cn3c(=O)c4cccn4c4cccnc43)cc2)cc1,inactive: 85%
6,Cc1ccc(NC(=O)CSc2ccc(-c3sc(-c4ccccc4)nc3C)nn2)cc1F,inactive: 43%
7,CCN1C(=O)C2(c3ccccc31)c1c(oc3ccc(F)cc3c1=O)C(=O)N2CCCOC (configuration not stated),inactive: 84%
8,CCCc1cnc2c(c1SCc1ccc(C(F)(F)F)cc1)c(=O)n(C)c(=O)n2C,inactive: 53%
9,O=C1C=C(N2CCCCC2)C2(CCCCC2)O1,inactive: 120%
10,CN(C)S(=O)(=O)c1ccc(C(=O)Nc2ccc(-n3nncc3-c3ccccc3)cc2)cc1,inactive: 119%
11,Cc1cccc(N2CCN(C(=O)CCSCc3ccccc3F)CC2)c1C,inactive: 81%
12,COc1ccccc1N1CCN(C(=O)Cn2ncc3c(=O)oc4ccc(C)cc4c32)CC1,inactive: 89%
13,O=C(Cn1cc(/C=N/NC(=O)c2ccc(Oc3ccc(O)cc3)cc2)c2ccccc21)NCc1ccco1,inactive: 109%
14,Cc1cccc(CNC(=O)c2cnc3sc(N4CCCCCC4)nn3c2=O)c1,inactive: 125%
15,COc1ccc(-c2nsc(NC(=O)c3oc4cc(C)c(C)cc4c3C)n2)cc1,inactive: 94%
16,Cc1ccc(N(Cc2cccs2)C(=O)COc2cccc(C)c2)cc1,inactive: 85%
17,CC(=O)c1ccc(NC(=O)Cn2c(=O)n(Cc3ccco3)c(=O)c3sc4ccccc4c32)cc1,inactive: 78%
18,CCN1CCN(c2cc(C)c3cc(NC(=O)c4cc(Cl)ccc4OC)ccc3n2)CC1,active: 2%
19,Cc1nn2c(=O)cc(COC(=O)CNC(=O)c3ccc(F)cc3)nc2s1,inactive: 66%
20,COc1ccc(C2=NC(C)(C)N(CC(=O)Nc3ccc(F)c(F)c3)C2=O)cc1,inactive: 83%
21,CCc1nnc(SCC(=O)N2c3ccc(F)cc3CCC2C)n1C (configuration not stated),inactive: 120%
22,COc1ccc(C(C(=O)NCc2cccs2)N(Cc2ccco2)C(=O)Cn2nnc(-c3cccs3)n2)cc1 (configuration not stated),inactive: 117%

row,SMILES,survival
1,COc1cccc(OC)c1C(=O)Nc1ccc(S(=O)(=O)Nc2nccc(C)n2)cc1,inactive: 65%
2,Cc1ccc(-n2ncc(C(=O)NCCCN3CCCCC3)c2C2CCN(C(=O)OC(C)(C)C)CC2)cc1,inactive: 74%
3,O=C(O)CCCNC1=NCCN1,inactive: 99%
4,Cc1ccc(OCC(O)Cn2c(=N)n(CCN3CCCCC3)c3ccccc32)cc1 (configuration not stated),inactive: 74%
5,CCOC(=O)c1c(C)n(-c2ccccc2)c2ccc(OC(=O)c3ccccc3NC(=O)C(C)(C)C)cc12,inactive: 65%
6,Cc1ccc(NC(=O)c2c(C)nc3sc(C(=O)Nc4ccc(F)cc4)c(N)c3c2-c2ccccc2Cl)c(C)c1,inactive: 65%
7,CCc1ccc(S(=O)(=O)c2cn(CC)c3cc(N4CCOCC4)c(F)cc3c2=O)cc1,inactive: 69%
8,CC(=O)c1ccc(NC(=O)Cn2cc3c(n2)CCCC3)cc1,inactive: 82%
9,O=C(O)c1cc(-c2ccc(C(F)(F)F)cc2)nc2n[nH]c(-c3ccccc3)c12,inactive: 87%
10,COc1ccccc1C(=O)Nc1nnc(S(=O)(=O)N(C)c2ccc(Cl)cc2)s1,inactive: 107%
11,COc1ccc(Cl)cc1NC(=O)c1ccc2c(c1)CCCN2S(C)(=O)=O,inactive: 79%
12,CCN(CC)CCN1C(=O)C2C3c4ccccc4C(c4ccccc43)C2C1=O (configuration not stated),inactive: 113%
13,CCOc1ccc(CN2CCN(c3ncnc4sc5c(c34)CC(C)CC5)CC2)cc1 (configuration not stated),inactive: 80%
14,CCOc1ccc2c(c1)c(=O)c(S(=O)(=O)c1ccccc1)cn2CC(=O)Nc1ccccc1OC,inactive: 72%
15,Cc1ccc(CNC(=O)C2CCN(S(=O)(=O)c3ccc4c(c3)CCCN4C(=O)C3CCC3)CC2)cc1,inactive: 99%
16,C=C(C)c1cccc(C(C)(C)NC(=O)N(C)C2CCN(C)CC2)c1,inactive: 105%
17,Cc1nc(-c2ccccc2)sc1CCNS(=O)(=O)c1ccccc1,inactive: 69%
18,O=C(NCCSc1c(-c2ccccc2)[nH]c2ccccc12)c1ccc(S(=O)(=O)N2CCOCC2)cc1,inactive: 71%
19,Cc1ccccc1Cn1c(CN2CCC(C(=O)NCCN(C)C)CC2)cc2ccccc21,inactive: 121%
20,CCOc1ccc(S(=O)(=O)N(CC(=O)NCCc2ccc(OC)c(OC)c2)c2ccccc2)cc1,inactive: 81%
21,COc1cccc(NC(=O)c2cc3c(=O)n(C)c4ccccc4c3n2C)c1,inactive: 93%
